Among all 48,000 compounds or so, about 1,200 (2.5%) were called active. About 2% were inconclusive and are not listed.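 Rule for the calls: active = activation of at least 60% and not above a set upper limit (about 1 call in 100 departs from these limits); inconclusive = activation of 40% to 60%, or above that upper limit; inactive = activation under 40%.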 This is one part of the list.
Target: Probable G-protein coupled receptor 32 (Homo sapiens) (UniProt O75388)
Test: qHTS for Agonists of Human Resolvin D1 Receptor DRV1; note: 0% is about no effect
Details: CHO-K1 GPR32 beta-arrestin PathHunter luminescence, 90 min; at 76.9 µM; active compounds read high; zero percent set by DMSO-only wells
In short: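 CHO-K1 cells stably expressing ProLink-tagged GPR32 and Enzyme Activator-tagged beta-arrestin were seeded at 2,500 cells/well overnight, exposed to compounds for 90 min at 37 °C, then read by beta-Gal complementation chemiluminescence after 1 h detection reagent.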

Chain of UniProt O75388 (O75388 whole entry, looked up): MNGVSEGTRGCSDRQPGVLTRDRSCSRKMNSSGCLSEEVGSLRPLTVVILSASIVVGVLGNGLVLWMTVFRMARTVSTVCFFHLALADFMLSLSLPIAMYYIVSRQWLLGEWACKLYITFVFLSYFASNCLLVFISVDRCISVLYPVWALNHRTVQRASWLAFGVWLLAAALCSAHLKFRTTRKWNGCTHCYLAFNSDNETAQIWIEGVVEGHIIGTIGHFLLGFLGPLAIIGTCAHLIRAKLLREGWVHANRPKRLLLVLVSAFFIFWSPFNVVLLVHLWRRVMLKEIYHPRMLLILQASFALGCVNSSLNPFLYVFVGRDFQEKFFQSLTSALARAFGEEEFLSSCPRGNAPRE

SMILES	activation
Cc1nn(CC(=O)NCc2ccccc2Cl)c(=O)c2cccn12	inactive: 12.4%
CCCC(=O)Nc1cc(C(=O)NCc2ccc(OC)cc2)ccc1S(=O)(=O)c1ccc(Cl)cc1	inactive: -4.74%
CC1(C)CO[C@@H](CC(=O)O)CN1	inactive: -8.49%
CCOC(=O)C1CCN(C(=O)C2CCN(c3nnc(C)c4c(C)n(-c5ccccc5)nc34)CC2)CC1	inactive: -5.55%
COc1ccc(-c2cc(OC(=O)c3ccc(F)cc3)c3c(C)oc(C)c3c(=O)c2)cc1OC	inactive: -16.2%
CC(=O)Oc1ccc(C)cc1	inactive: -5.86%
COc1ccc(NC(=O)C2CCCN(S(=O)(=O)c3c(C)n[nH]c3C)C2)cc1OC (stereo not drawn)	inactive: -0.588%
Cc1ccc(Cc2c(C)nn(-c3nc(C)c(C(=O)N4CCCCC4C)s3)c2C)cc1 (stereo not drawn)	inactive: -1.8%
COc1ccc(-c2noc(CSc3nnc(-c4ccccc4)n3-c3ccc(F)cc3)n2)c(OC)c1	inactive: -12.5%
Cc1cccc(NC(=O)CN2c3ccccc3S(=O)(=O)c3ccccc32)c1C	inactive: 7.64%
CCc1nn(CC(=O)NCc2ccc(OC)cc2OC)c(=O)c2cc3c(OC)cccc3n12	inactive: 6.03%
CCC(=O)N1CCc2cc(S(=O)(=O)NC(C(=O)NCCc3ccc(Cl)cc3)C(C)C)ccc21 (stereo not drawn)	inactive: -3.97%
COc1ccc(N2CCN(C(=O)c3ccc(NC(=O)c4nsc5ccccc45)cc3)CC2)cc1	inactive: -21.7%
O=C(/C=C\c1ccc2c(c1)OCO2)NC1CC(=O)N(c2ccc(F)cc2)C1 (stereo not drawn)	inactive: 2.01%
Oc1cccc(-c2c3nc(c(-c4cccc(O)c4)c4ccc([nH]4)c(-c4cccc(O)c4)c4nc(c(-c5cccc(O)c5)c5ccc2[nH]5)CC4)C=C3)c1	inactive: -15.4%
CCOCCCNC(=O)c1cc2c(=O)n3ccccc3nc2s1	inactive: -3.11%
Cc1ccc(C)c(N2CCN(C(=O)c3cc4cc5ccc(C)cc5nc4s3)CC2)c1	inactive: -5.45%
CC(C)(C)c1ccc(C(=O)Nc2cc(-c3ccccc3)nn2-c2ccccc2)cc1	inactive: -9.18%
Cc1ccc(CNc2nc3c(S(=O)(=O)c4ccc(C)c(C)c4)nnn3c3ccc(Cl)cc23)cc1	inactive: -6.01%
Cc1ccc(CNC(=O)CCn2ccc3cc(S(=O)(=O)N4CCCC4)ccc32)cc1	inactive: -14.4%
Cc1ccc(CSc2oc(-c3ccco3)nc2S(=O)(=O)c2ccc(Br)cc2)cc1	inactive: -13.1%
CC1CCN(C(=O)CSc2nc3c([nH]c4ccccc43)c(=O)n2-c2ccccc2)CC1	inactive: -12.3%
O=C(CN1CCN(c2ccc(Cl)cc2)CC1)Nc1ccc(Cl)c(C(F)(F)F)c1	inactive: 16.4%
CCOc1ccc(-n2c(=O)c3c4c(sc3n(Cc3cc(=O)n5cc(Cl)ccc5n3)c2=O)CCC4)cc1	inactive: -2.03%
CCc1ccc(NC(=O)Cn2c(=O)n(Cc3nc(C)no3)c(=O)c3cc4c(cc32)OCO4)cc1	inactive: -17.8%
COc1ccccc1NC(=O)CSc1nnc(-c2nonc2NC(C)=O)n1-c1ccccc1	inactive: -18%
CCN(c1ccccc1)S(=O)(=O)c1ccc(NC(=O)c2cc(=O)c3ccc(C)c(C)c3o2)cc1	inactive: -4.07%

SMILES	activation
Cc1ccc2c(CC(=O)Nc3c(C(=O)c4ccc(F)cc4)oc4ccccc34)coc2c1	inactive: -11.9%
COc1ccc(-c2nc3c(c(SCc4cc(C)ccc4C)n2)Cc2c(CO)cnc(C)c2O3)cc1	inactive: 8.25%
COc1ccc(N2CCN(C(=O)c3nn(C)c4c3CS(=O)(=O)c3ccccc3-4)CC2)cc1	inactive: 13.2%
CCC(=O)OCc1cnc(C)c2oc(=O)c(C(=O)Nc3ccc(CC)cc3)cc12	inactive: -11.2%
CC(NC(=O)C1CCN(C(=O)N2CCOc3ccc(Cl)cc32)CC1)c1ccccc1 (stereo not drawn)	inactive: -14.2%
Cn1cc(C(=O)[C@@H]2CCc3nc[nH]c3C2)c2ccccc21	inactive: 5.91%
O=C(CCSCc1ccc(Cl)cc1)N1CCN(c2ccccc2F)CC1	inactive: -25.2%
COc1ccc(CCNC(=O)CS(=O)Cc2nc(-c3ccc(C)cc3)oc2C)cc1OC (stereo not drawn)	inactive: -15.2%
NC(=O)c1cc(S(=O)(=O)NCc2ccc(Br)cc2)cs1	inactive: 5.24%
COc1ccccc1Nc1nn2c(=O)c3ccc(C(=O)Nc4ccc(F)cc4)cc3nc2s1	inactive: 9.21%
CCCN(CCC)CCNC(=O)Cn1ncc2c([nH]c3ccc(C)cc32)c1=O	inactive: -9.83%
Cc1cccc(C(=O)O)c1O	inactive: -46.1%
CCOc1ccc2oc(=O)cc(CN3CCN(C(=O)c4cccc(F)c4)CC3)c2c1	inactive: -12.6%
CCOC(=O)c1[nH]c(C)c(CCC(=O)NCc2ccc(C)cc2)c1C	inactive: -11.6%
CCc1cccc(-n2c(=O)c3cccnc3n2CC(=O)NCc2ccccc2Cl)c1	inactive: -16.4%
CCOC(=O)c1ccc(NC(=O)CCc2c(C)n(CC)c3cc(-c4ccccc4OC)nn3c2=O)cc1	inactive: -10.7%
Cc1ccccc1NC(=O)Cn1nnc(C(=O)NCc2cccs2)c1N	inactive: -2.47%
Cc1ccc(NC(=O)CCc2c(C)nc3ncnn3c2C)cc1Cl	inactive: 3.28%
Cc1cccc(NC(=O)CN2C(=O)CC(c3ccccc3)Sc3ccccc32)c1 (stereo not drawn)	inactive: -18.3%
CCc1ccc(NC(=O)Cn2nnc(C(=O)Nc3ccc(F)cc3)c2N)cc1	inactive: -1.95%
CC(CNC(=O)c1csc2c1CCCCC2)c1ccccc1 (stereo not drawn)	inactive: -7.72%
Cc1ccc(CSc2nc3cc(C(=O)NC4CCCC4)ccc3c(=O)n2Cc2ccccc2)cc1	inactive: -17.6%
CCc1ccc(NS(=O)(=O)c2ccc(NC(=O)N3CCCC3)cc2)cc1	active: 68.7%
COc1ccc(CCN2C(=O)N(c3ccc(C)cc3)C(=O)C2CC(=O)Nc2ccc(OC)cc2)cc1 (stereo not drawn)	inactive: -1.64%
O=C(NCc1cccc(Cl)c1)c1ccc2c(Cl)c3c(nc2c1)CCCC3	inactive: -7.09%
CCOC(=O)C1CCCN(C(=O)Cn2ncc3c4ccccc4n(C)c3c2=O)C1 (stereo not drawn)	inactive: -2.56%
